Source: PubChem BioAssay AID504332 (National Center for Advancing Translational Sciences (NCATS), 2011)
The whole screen tested about 350,000 compounds, of which about 31,000 (8.9%) were called active. Inconclusive means that the source gave no clear call. Such entries were picked first, then a sample of the others. The call rests on the fitted dose curve; in most records, active means well fitted inhibition curve with a large enough effect; inconclusive means small, poorly fitted or top-dose-only effect; inactive means no such curve, though single readings can be large or run the other way. A potency beside an inconclusive call is a rough fit, not a confirmed value.

Each molecule was assayed against Histone-lysine N-methyltransferase EHMT2 (Homo sapiens) (UniProt Q96KQ7) (assay: qHTS Assay for Inhibitors of Histone Lysine Methyltransferase G9a). Conditions: G9a H3K9 monomethylation, AlphaScreen, 2 h; activity, negative = inhibition: at 59 µM (top of the series) unless noted.
Sequence of UniProt Q96KQ7 (Q96KQ7 whole entry, looked up): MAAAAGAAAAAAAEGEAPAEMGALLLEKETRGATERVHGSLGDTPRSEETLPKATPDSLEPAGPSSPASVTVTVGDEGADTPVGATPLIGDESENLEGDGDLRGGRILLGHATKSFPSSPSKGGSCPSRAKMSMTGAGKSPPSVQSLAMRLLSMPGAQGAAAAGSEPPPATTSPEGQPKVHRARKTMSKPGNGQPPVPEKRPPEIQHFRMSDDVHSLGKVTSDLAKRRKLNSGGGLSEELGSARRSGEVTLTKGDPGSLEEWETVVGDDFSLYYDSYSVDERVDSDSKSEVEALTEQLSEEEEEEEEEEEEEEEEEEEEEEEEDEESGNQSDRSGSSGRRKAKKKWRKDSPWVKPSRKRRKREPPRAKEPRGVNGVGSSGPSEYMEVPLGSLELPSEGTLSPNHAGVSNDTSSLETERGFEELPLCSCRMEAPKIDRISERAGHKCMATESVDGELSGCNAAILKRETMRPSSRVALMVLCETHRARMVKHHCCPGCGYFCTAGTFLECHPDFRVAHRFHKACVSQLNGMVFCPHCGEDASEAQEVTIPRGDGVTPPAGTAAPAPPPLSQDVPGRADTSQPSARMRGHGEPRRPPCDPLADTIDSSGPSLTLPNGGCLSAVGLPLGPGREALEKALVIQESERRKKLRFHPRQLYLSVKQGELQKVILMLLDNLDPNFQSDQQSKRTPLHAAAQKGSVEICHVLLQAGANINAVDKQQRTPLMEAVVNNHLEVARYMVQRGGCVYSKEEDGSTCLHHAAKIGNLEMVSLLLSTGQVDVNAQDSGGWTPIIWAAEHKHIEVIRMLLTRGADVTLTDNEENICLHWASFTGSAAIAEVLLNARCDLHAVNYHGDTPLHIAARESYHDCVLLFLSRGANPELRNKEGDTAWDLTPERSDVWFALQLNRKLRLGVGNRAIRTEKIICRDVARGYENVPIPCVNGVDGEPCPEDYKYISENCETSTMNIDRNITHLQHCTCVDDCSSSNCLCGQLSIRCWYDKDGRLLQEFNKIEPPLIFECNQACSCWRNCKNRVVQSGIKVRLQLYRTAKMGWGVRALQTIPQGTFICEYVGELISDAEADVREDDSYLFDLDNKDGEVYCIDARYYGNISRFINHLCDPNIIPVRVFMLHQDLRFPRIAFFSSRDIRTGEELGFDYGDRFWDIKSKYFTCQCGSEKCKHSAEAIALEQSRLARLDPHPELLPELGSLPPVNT
Method in brief: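 G9a (20 nM) was preincubated 15 min with compound, then reacted 2 h at room temperature with 500 nM biotin-H3K9 peptide and 20 µM SAM. Monomethyl-H3K9 detected by AlphaScreen using anti-H3K9me1 antibody.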
Further: nearly all actives have a fitted effect of over 75% in size.
On the % scale 0 is the no-effect control and ±100 the full control effect; potency means the concentration at half of the fitted maximal effect; tags describe the fitted curve by direction and shape.

Structure (SMILES) | activity, negative = inhibition | Potency
COCc1cc(C)nc(SCC(=O)Nc2nc(C)cs2)c1C#N | inactive: 14.2% [at 102 µM] | 
CCCSCCCNC(=O)C1CCN(c2nn3cc(-c4ccc(F)cc4)nc3s2)CC1 | inactive: -0.543% | 
CCOC(=O)c1c(NC(C)=O)sc2c1CCC(C=O)=C2Sc1ccccc1 |  | inconclusive: 12.6 µM [inhibitor, partial curve, poor fit]
CCNc1oc(-c2ccc(OC)cc2)nc1S(=O)(=O)c1ccc(Br)cc1 |  | active: 56.2 µM
Cc1ccc2nc(-c3ccc(O)cc3)c(Nc3ccc4c(c3)OCCO4)n2c1 |  | active: 8.91 µM
Fc1cccc(NC(=S)N2CCc3ccccc32)c1 |  | inconclusive: 15.8 µM [inhibitor, partial curve, poor fit]
CCCn1c(-c2ccc(S(=O)(=O)N3CCOCC3)cc2)csc1=Nc1ccc(OCC)cc1 |  | active: 12.6 µM
CCCCOc1ccc(C(=O)CCN2CCOCC2)cc1 |  | active: 22.4 µM
COc1ccc(Cl)cc1NC(=O)CN(C(=O)c1ccco1)C1CCCCC1 | inactive: -5.06% | 
CCN(CC)CCCN1C(=O)C(=O)/C(=C(/O)c2ccc(OC)c(Cl)c2)C1c1ccco1 (configuration not stated) |  | active: 44.7 µM
O=C1c2cnccc2CN1Cc1ccccc1 |  | inconclusive: 50.1 µM [inhibitor, partial curve]
Cn1c(O)c(N=NC(=O)CNC(=O)c2ccccc2)c2ccccc21 | inactive: -5.83% [at 102 µM] | 
CCOC(=O)c1c(C)oc2ncnc(Nc3ccc(OCC)cc3)c12 | inactive: 0.328% | 
Cc1nn(S(=O)(=O)c2cccc([N+](=O)[O-])c2)c(C)c1Br | inconclusive: -65.6% [inhibitor] | 
CCOC(=O)CCc1c(C)nc(SCC(=O)O)c(C#N)c1C |  | active: 8.91 µM
O=C1C2C(C(=O)N1/N=C/c1cc(Br)cc([N+](=O)[O-])c1O)C1C=CC2C12CC2 (configuration not stated) | inconclusive: -61.8% [inhibitor] | 
O=C(O)CN1C(=O)/C(=C\c2cccc(OCc3ccc(Cl)cc3)c2)SC1=S |  | active: 39.8 µM
CN1C(c2ccc(F)cc2)=CS/C1=C(/C#N)c1nnc(N2CCOCC2)n1-c1ccccc1 |  | inconclusive: 39.8 µM [inhibitor, single point]
CN(c1ccccc1)S(=O)(=O)c1cccc(NC(=O)CN2C(=O)NC3(CCCCC3)C2=O)c1 |  | inconclusive: 25.1 µM [inhibitor, single point]
COC(=O)c1c(NC(=O)c2ccc(S(=O)(=O)N3CCOCC3)cc2)sc2c1CCN(C(C)C)C2 |  | inconclusive: 70.8 µM [inhibitor, single point]
Cc1nn(-c2ccccn2)c(C)c1Oc1ccccc1O |  | inconclusive: 25.1 µM [inhibitor, single point]
Cc1csc(SCC(=O)NC2CCCCC2)n1 |  | inconclusive: 6.31 µM [inhibitor, single point]
CCOc1ccc(C2c3c(oc4ccccc4c3=O)C(=O)N2CCCN2CCOCC2)cc1OCC (configuration not stated) |  | inconclusive: 1.78 µM [inhibitor, full curve, poor fit]
O=C(CSc1ccccc1)Nc1nnc(COc2ccc(Cl)cc2)s1 |  | active: 1.41 µM

Structure (SMILES) | activity, negative = inhibition | Potency
CC(C(=O)N1CCc2ccccc21)N(C)CC(=O)Nc1cccc(F)c1 (configuration not stated) |  | inconclusive: 7.08 µM [inhibitor, partial curve, poor fit]
Cc1ccc(N(CC(=O)NCCc2ccccc2)S(=O)(=O)N(C)C)cc1 | inactive: -26.9% | 
COCC(=O)Nc1nc(-c2ccc([N+](=O)[O-])cc2)cs1 | inactive: -35.5% [at 102 µM] | 
COc1cccc(NC(=O)CNC(=O)Cn2c(C)cc3ccccc3c2=O)c1 | inactive: 6.53% | 
NNc1nnc(-c2ccccc2)c(-c2ccccc2)n1 |  | inconclusive: 0.282 µM [inhibitor, partial curve, poor fit]
O=C(OCC(=O)C12CC3CC(CC(C3)C1)C2)c1ccc(O)cc1O | inactive: -38.4% [at 102 µM] | 
COc1ccc(-n2nnnc2SCC(=O)c2ccc(O)c(O)c2)cc1 |  | inconclusive: 1.41 µM [inhibitor, partial curve, poor fit]
O=C(CSc1nc2c(cnn2-c2ccc(F)cc2)c(=O)[nH]1)N1CCCc2ccccc21 |  | inconclusive: 79.4 µM [inhibitor, single point]
O=C(CN1C(=O)CCc2cc(S(=O)(=O)N3CCOCC3)ccc21)NCc1ccc(F)cc1 | inactive: 23.6% | 
CC(C)CNS(=O)(=O)c1cc(C(=O)OCC(=O)c2ccc3c(c2)OCCO3)c(Cl)cc1Cl |  | inconclusive: 89.1 µM [inhibitor, single point]
Oc1ccccc1N1CCN(c2ncnc3scc(-c4ccccc4)c23)CC1 |  | inconclusive: 70.8 µM [inhibitor, partial curve, poor fit]
N=c1sccn1CC(=O)Nc1ccc(S(=O)(=O)N2CCOCC2)cc1 |  | inconclusive: 89.1 µM [inhibitor, partial curve, poor fit]
Cc1ccccc1NC(=O)c1cccc(N2C(=O)C3CCCCC3C2=O)c1 (configuration not stated) | inactive: -16.2% [at 102 µM] | 
Cc1ccc(C(=O)Nc2nc3ccc(S(C)(=O)=O)cc3s2)s1 |  | inconclusive: 39.8 µM [inhibitor, single point]
Cc1cc(C)c(C)c(OCCOCCNCc2ccccc2)c1 |  | inconclusive: 20 µM [inhibitor, partial curve, poor fit]
CC1CCN(c2oc(-c3cccs3)nc2S(=O)(=O)c2ccc(Cl)cc2)CC1 |  | active: 7.94 µM
CC1=C(C(=O)OCc2ccccc2)C(c2ccc([N+](=O)[O-])cc2)NC(=O)N1CCCCCC(=O)O (configuration not stated) |  | inconclusive: 89.1 µM [inhibitor, single point]
C/C(=N/NC(N)=S)c1ccc(Br)s1 |  | active: 15.8 µM
Cc1ccc(C(O)c2cccnc2)o1 (configuration not stated) |  | inconclusive: 79.4 µM [inhibitor, single point]
COc1ccc(NC(=O)COC(=O)CCc2ccccc2)c(OC)c1 | inactive: 27.7% [at 102 µM] | 
CC(C)(C)C1CCc2oc3ccc(NS(=O)(=O)c4cc(Cl)ccc4Cl)cc3c2C1 (configuration not stated) | inactive: -9.19% | 
Cc1nn(C)c(C(=O)Sc2ccccc2)c1[N+](=O)[O-] |  | inconclusive: 31.6 µM [inhibitor, single point]
CS(=O)(=O)N(CC(=O)NCc1ccc2c(c1)OCO2)Cc1ccc(Cl)cc1 |  | inconclusive: 79.4 µM [inhibitor, partial curve, poor fit]
